# Assay results as given in PMC3125179, “A Ribosomal Misincorporation of Lys for Arg in Human Triosephosphate Isomerase Expressed in Escherichia coli Gives Rise to Two Protein Populations” (PLoS ONE, 2011).
# Target: the molecule itself
# Assay: SEC; Superdex 200 10/300GL, 20 mM triethanolamine, 0.2 mM EDTA, 200 mM NaCl, 1 mM dithiothreitol, pH 7.4; calibrated with globular markers; no urea
protein,measurement,value
"human triosephosphate isomerase (HsTIM), wild type sequence (enzyme, triosephosphate isomerase, human, wild type, subcloned from pARHS-HsTIM into pET3b with an N-terminal His-tag and a TEV site; theoretical mass of the monomer after cleavage 26732 Da; Arg4, Arg98, Arg99 as printed are R5, R99, R100 with the methionine counted; also called P2; Peak 2; source: E. coli BL21(DE3), purified (Ni-NTA, TEV cleavage, second Ni-NTA); P2 isolated by SEC in 3 M urea; not …) not shown",stoichiometry N,2
